Data published in patent US20250270341A1 (Alector, published 2025).

T1: huCD98hc ECD Avi-His (human, UniProt P08195 105-529)
T1 construct: biotinylated on the Avi tag where captured on streptavidin; also called Human CD98-AVI-His; Human CD98hc-AVI-His
T1 sequence: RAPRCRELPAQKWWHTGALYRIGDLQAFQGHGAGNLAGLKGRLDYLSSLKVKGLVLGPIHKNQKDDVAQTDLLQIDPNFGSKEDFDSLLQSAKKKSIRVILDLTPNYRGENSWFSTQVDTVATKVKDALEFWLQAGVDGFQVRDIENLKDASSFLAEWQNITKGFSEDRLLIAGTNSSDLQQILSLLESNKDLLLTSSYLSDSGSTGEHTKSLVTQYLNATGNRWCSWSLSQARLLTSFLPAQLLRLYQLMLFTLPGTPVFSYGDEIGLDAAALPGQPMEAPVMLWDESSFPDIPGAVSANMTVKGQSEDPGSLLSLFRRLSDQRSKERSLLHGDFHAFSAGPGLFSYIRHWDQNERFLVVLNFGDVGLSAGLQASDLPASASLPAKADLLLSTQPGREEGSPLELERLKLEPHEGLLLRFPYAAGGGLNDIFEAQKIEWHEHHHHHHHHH

T2: Cyno CD98hc ECD Avi-His (cynomolgus macaque, UniProt P08195 105-529 (human entry))
T2 construct: biotinylated on the Avi tag where captured on streptavidin; also called Cyno CD98-AVI-His; Cyno CD98hc-AVI-His
T2 chain: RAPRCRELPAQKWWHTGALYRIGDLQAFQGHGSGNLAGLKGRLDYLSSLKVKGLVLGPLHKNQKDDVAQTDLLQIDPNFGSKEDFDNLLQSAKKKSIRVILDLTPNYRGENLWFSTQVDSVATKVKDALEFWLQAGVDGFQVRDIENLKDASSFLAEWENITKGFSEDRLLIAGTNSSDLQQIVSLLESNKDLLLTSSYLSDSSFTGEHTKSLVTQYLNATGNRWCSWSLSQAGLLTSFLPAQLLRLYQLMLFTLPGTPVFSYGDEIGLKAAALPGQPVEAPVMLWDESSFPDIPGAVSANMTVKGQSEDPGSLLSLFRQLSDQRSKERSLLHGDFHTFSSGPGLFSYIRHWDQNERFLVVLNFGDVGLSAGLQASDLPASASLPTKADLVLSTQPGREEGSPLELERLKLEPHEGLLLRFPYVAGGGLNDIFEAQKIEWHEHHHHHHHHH

B1: CD98hc.05.006 (2+1 bispecific antibody) (bispecific antibody)
heavy 1: EVRLLESGGGLVQPGGSLRLSCAASGFTFSNYAMGWVRQAPGKGLEWVSAISGSGGSTYYADSVKGRFTTSRDDSKNALYLQMNSLRAEDTAVYYCARGGPGWYAADVWGQGTTVTVSSASTKGPSVFPLAPSSKSTSGGTAALGCLVKDYFPEPVTVSWNSGALTSGVHTFPAVLQSSGLYSLSSVVTVPSSSLGTQTYICNVNHKPSNTKVDKKV[here human IgG1 Fc with changes without letters]GGGGSGGGGSGGGGSEVKLVESGGNLVQPGGSLKLSCAASGFTFSGYSMSWVRQTPDKRLEWVAYIGNGGDSTYYPYTVKGRFTISRDNAKNTLYLQMNSLKSEDSAMYYCARQYVNYPFFDYWGQGTTLTVSSGGSEGKSSGSGSESKSTGGSDIVMSQSPSSLTVSVGAKIILGCKSSQSLLYSGNQKNYLAWYQQKPGQSPKLLIYWASTRESGVPDRFTGSGSGTDFTLTISSVKAEDVAVYYCQQYYTYPPAFGAGTKLEIK
heavy 2: EVRLLESGGGLVQPGGSLRLSCAASGFTFSNYAMGWVRQAPGKGLEWVSAISGSGGSTYYADSVKGRFTTSRDDSKNALYLQMNSLRAEDTAVYYCARGGPGWYAADVWGQGTTVTVSS[here human IgG1 constant region with changes without letters]
light: DIQMTQSPSSLSASVGDRVTITCRASQSISSYLNWYQQKPGKAPKLLIYAASSLQSGVPSRFSGSGSGTDFTLTISSLQPEDFATYYCQQADLPAFAFGGGTKVEIKRTVAAPSVFIFPPSDEQLKSGTASVVCLLNNFYPREAKVQWKVDNALQSGNSQESVTEQDSKDSTYSLSSTLTLSKADYEKHKVYACEVTHQGLSSPVTKSFNRGEC
B2: CD98hc.05.081 (2+1 bispecific antibody) (bispecific antibody)
heavy 1: EVRLLESGGGLVQPGGSLRLSCAASGFTFSNYAMGWVRQAPGKGLEWVSAISGSGGSTYYADSVKGRFTTSRDDSKNALYLQMNSLRAEDTAVYYCARGGPGWYAADVWGQGTTVTVSSASTKGPSVFPLAPSSKSTSGGTAALGCLVKDYFPEPVTVSWNSGALTSGVHTFPAVLQSSGLYSLSSVVTVPSSSLGTQTYICNVNHKPSNTKVDKKV[here human IgG1 Fc with changes without letters]GGGGSGGGGSGGGGSEVQLQQSRPELVKPGASVKMSCKASGYTFTSYVMHWVKQKPGQGLEWIGYISPYNGDTKYNEKFKGKATLTSDISSTTAYMELSSLTSEDSGVYYCARPGSSPSWFAYWGQGTLVTVSSGGSEGKSSGSGSESKSTGGSDIVMTQFPATLSVTPGDRVSLSCRASQSISNYLHWYQQKSHESPRLLIKYASQSISGIPSRFSGSGSGSDFTLSINSVEPEDVGVYYCQNGHSFPYMYTFGGGTKLEIK
heavy 2: EVRLLESGGGLVQPGGSLRLSCAASGFTFSNYAMGWVRQAPGKGLEWVSAISGSGGSTYYADSVKGRFTTSRDDSKNALYLQMNSLRAEDTAVYYCARGGPGWYAADVWGQGTTVTVSS[here human IgG1 constant region with changes without letters]
light: B1 light
B3: CD98hc.05.188 (2+1 bispecific antibody) (bispecific antibody)
heavy 1: EVRLLESGGGLVQPGGSLRLSCAASGFTFSNYAMGWVRQAPGKGLEWVSAISGSGGSTYYADSVKGRFTTSRDDSKNALYLQMNSLRAEDTAVYYCARGGPGWYAADVWGQGTTVTVSSASTKGPSVFPLAPSSKSTSGGTAALGCLVKDYFPEPVTVSWNSGALTSGVHTFPAVLQSSGLYSLSSVVTVPSSSLGTQTYICNVNHKPSNTKVDKKV[here human IgG1 Fc with changes without letters]GGGGSGGGGSGGGGSQVQLQQPGAELVRPGASVKLSCKASGYTFTSYWMSWVKQRPGQGLEWIGFITPSDSEALYSQMFKDKATLTVDKSSSTAHLQLSSLTSEDSAVYYCARWSYGNFAAMDYWGQGTSVTVSSGGSEGKSSGSGSESKSTGGSDIVMTQSPSSLAMSVGQKVTMSCKSSQSLLNSNNQKNYLAWYQQKPGQSPKLLVYFSSTRESGVPDRFIGSGSGTDFTLTITSVQAEDLADYFCQQHYSTPLTFGAGTKLEIK
heavy 2: EVRLLESGGGLVQPGGSLRLSCAASGFTFSNYAMGWVRQAPGKGLEWVSAISGSGGSTYYADSVKGRFTTSRDDSKNALYLQMNSLRAEDTAVYYCARGGPGWYAADVWGQGTTVTVSS[here human IgG1 constant region with changes without letters]
light: B1 light
B4: CD98hc.04.046 (2+1 bispecific antibody) (bispecific antibody)
heavy 1: EVRLLESGGGLVQPGGSLRLSCAASGFTFSNYAMGWVRQAPGKGLEWVSAISGSGGSTYYADSVKGRFTTSRDDSKNALYLQMNSLRAEDTAVYYCARGGPGWYAADVWGQGTTVTVSSASTKGPSVFPLAPSSKSTSGGTAALGCLVKDYFPEPVTVSWNSGALTSGVHTFPAVLQSSGLYSLSSVVTVPSSSLGTQTYICNVNHKPSNTKVDKKV[here human IgG1 Fc with changes without letters]GGGGSGGGGSGGGGSQIQLVQSGPVLKKPGETVKISCKASGYTFTNFGMNWVKQAPGKGLKWMGWIDTYTREPTYVDDFKGRFAFSLETSVTTAYLQINDLKNEDSATYFCARGESHWYFDVWGAGTTVTVSSGGSEGKSSGSGSESKSTGGSQIVLTQSPAIMSASLGERVTMTCIVSSSVSSSYLYWYQQKPGSSPKLWIYSTSILASGVPGRFSGSGSGTSYSLTISSMEAEDAATYYCHQYHRSPPTFGGGTKLEIK
heavy 2: EVRLLESGGGLVQPGGSLRLSCAASGFTFSNYAMGWVRQAPGKGLEWVSAISGSGGSTYYADSVKGRFTTSRDDSKNALYLQMNSLRAEDTAVYYCARGGPGWYAADVWGQGTTVTVSS[here human IgG1 constant region with changes without letters]
light: B1 light
B5: CD98hc.04.054 (2+1 bispecific antibody) (bispecific antibody)
heavy 1: EVRLLESGGGLVQPGGSLRLSCAASGFTFSNYAMGWVRQAPGKGLEWVSAISGSGGSTYYADSVKGRFTTSRDDSKNALYLQMNSLRAEDTAVYYCARGGPGWYAADVWGQGTTVTVSSASTKGPSVFPLAPSSKSTSGGTAALGCLVKDYFPEPVTVSWNSGALTSGVHTFPAVLQSSGLYSLSSVVTVPSSSLGTQTYICNVNHKPSNTKVDKKV[here human IgG1 Fc with changes without letters]GGGGSGGGGSGGGGSQVQLQQSAAELARPGASVKMSCETSGYTFTRYTMNWVKQRPGQGLDWIGYINPSSGYAEYNQKFRGKTTLTADKSSSTAYIQLNSLTSEDSAVYYCVRYDGNYVYWGQGTTLTVSSGGSEGKSSGSGSESKSTGGSDIVMTQSQKFMSTSFGDRVDITCKASQNVGSAVAWYQQKPGQSPKLLIYSASNRYTGVPDRFTGSGSGTDFTLTINNMQSADLADYFCQQYNFYPLTFGAGTKLDLK
heavy 2: EVRLLESGGGLVQPGGSLRLSCAASGFTFSNYAMGWVRQAPGKGLEWVSAISGSGGSTYYADSVKGRFTTSRDDSKNALYLQMNSLRAEDTAVYYCARGGPGWYAADVWGQGTTVTVSS[here human IgG1 constant region with changes without letters]
light: B1 light
B6: CD98hc.04.062 (2+1 bispecific antibody) (bispecific antibody)
heavy 1: EVRLLESGGGLVQPGGSLRLSCAASGFTFSNYAMGWVRQAPGKGLEWVSAISGSGGSTYYADSVKGRFTTSRDDSKNALYLQMNSLRAEDTAVYYCARGGPGWYAADVWGQGTTVTVSSASTKGPSVFPLAPSSKSTSGGTAALGCLVKDYFPEPVTVSWNSGALTSGVHTFPAVLQSSGLYSLSSVVTVPSSSLGTQTYICNVNHKPSNTKVDKKV[here human IgG1 Fc with changes without letters]GGGGSGGGGSGGGGSEVQLVESGGDLVKPGGSLKLSCTASRFAFSTYDMSWVRQTPEKRLEWVAYISSGGGSTYFPDTVKGRFTISRDNAKNTLYLQMSSLKSEDTAMYYCARQDGHYPWFPYWGQGTLVTVSAGGSEGKSSGSGSESKSTGGSDIVMSQSPSSLAVSVGEKVTMSCKSSQSLLYSGNQKTYLAWYQQKPGQSPKPLIYWASTRESGIPDRFTGSGSGTDFTLTISSVKAEDLAVYYCQQYYSYPPTFGAGTKLELK
heavy 2: EVRLLESGGGLVQPGGSLRLSCAASGFTFSNYAMGWVRQAPGKGLEWVSAISGSGGSTYYADSVKGRFTTSRDDSKNALYLQMNSLRAEDTAVYYCARGGPGWYAADVWGQGTTVTVSS[here human IgG1 constant region with changes without letters]
light: B1 light

Each binder was assayed against T1, huCD98hc ECD Avi-His (assay: ELISA, 1-30 ug/mL).
Protocol: (§1) Blocking buffer was removed and human, cyno, or mouse Avi-His-tagged CD98hc and Avi-His-tagged human TfR polypeptides were added at 1 μg/ml in ELISA diluent and captured for 1 hour at room temperature. After washing three times with 300 μl of PBST (PBS+0.05% Tween20, Thermo 28352), the hybridoma cell culture supernatants or 1 μg/ml of commercially available purified mouse anti-human CD98hc monoclonal antibody (Sigma Aldrich, Cat #SAB 4700503) and rat anti-mouse CD98hc antibody (Bio-Rad Laboratories, Hercules, CA, Cat #MCA2684) were added (50 μl/well) to each well. After 30 minutes of incubation at room temperature, the plates were washed three times with 300 μl of PBST. […] After a final set of washes (3×300 μl in PBST), 50 μl/well of BioFx TMB substrate (Surmodics, Eden Praire, MN, Cat #TMBW-1000-01) was added to the wells. The reaction was then quenched after 5-10 mins with 50 μl/well of 2N sulfuric acid. The plates were read for absorbance at 450 nm on a SpectraMax M5 (Molecular Devices, Sunnyvale, CA) using SoftMax Pro software.
(§2) Purified 2+1 anti-CD98hc bispecific antibodies were screened for binding to human and cyno CD98hc by ELISA as in Example 6. Purified 2+1 bispecific antibodies were screened at concentrations ranging from 1-30 μg/mL. ELISA binding to human and cyno CD98 and control cyno TfR AVI-His tagged proteins as a ratio to secondary antibody alone were calculated, and values are listed in Table 10A. Purified 2+1 bispecific antibodies were also screened for their ability to bind CHO cells overexpressing human or mouse CD98hc or cells endogenously expressing human CD98hc by FACS. […] Data was acquired on a FACS Canto (BD Biosciences).
With B1 the “ELISA ratio to 2nd only” value was 38. B2 was tested, and the “ELISA ratio to 2nd only” value was 25. B3 was tested, and the “ELISA ratio to 2nd only” value was 17.

Each binder was assayed against T3, cyno TfR AVI-His (cyno, UniProt H9EXL1 89-760 (rhesus entry)) (assay: ELISA, 1-30 ug/mL).
T3 construct: control protein
Protocol: as §1, §2
With B1 the “ELISA ratio to 2nd only” value was 1. With B2 the “ELISA ratio to 2nd only” value was 1. B3 was tested, and the “ELISA ratio to 2nd only” value was 1.

Target: T2, Cyno CD98hc ECD Avi-His
Assay: ELISA, 1-30 ug/mL
Protocol: as §1, §2
In the case of B1, the “ELISA ratio to 2nd only” value is reported as 16. For B2, the “ELISA ratio to 2nd only” value was 6. B3 was tested, and the “ELISA ratio to 2nd only” value was 1.

Each binder was assayed against T1, huCD98hc ECD Avi-His (assay: SPR, Carterra LSA, antibody immobilized).
With B1 the Kd was 4.3 nM. B3 gave a Kd of 27 nM. B4 showed a Kd of 70 nM. B5 showed a Kd of 16 nM. In the case of B6, the Kd is reported as 23 nM.

Target: T2, Cyno CD98hc ECD Avi-His
Assay: SPR, Carterra LSA, antibody immobilized
For B1, the Kd was 20 nM. Work on B2 yielded a Kd of 80 nM. B4 was tested, and the Kd was 39 nM. B5 showed a Kd of 5.3 nM. For B6, the Kd was 49 nM.
